Here are results for 68 molecules from the supplement of paper PMC10600219.

Counter-ions that a name gives are not always drawn. In all, about 2,800 compounds were measured (“cell viability relative to vehicle”: median about 0.98, lowest 2% from about 0.45 on). Some of the results follow.

The assay concerns NCI-H2228 alectinib-DTP. Briefly: cell viability relative to vehicle (fraction of vehicle); NCI-H2228 is an ALK-positive lung cancer line and DTP means drug-tolerant persister; higher = less growth inhibition. The settings on record: 100 nM; treatment time 6 days. In a few lines:
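Drug-tolerant persister NCI-H2228 cells, produced by 13 days in 1000 nM of a targeted drug, and their parental counterparts were seeded into 384-well plates and, the following day, given the 3114-agent TargetMol anti-cancer compound library at 100 nM or DMSO vehicle. After 6 days, the CellTiter-Glo 3D Cell Viability Assay was used to read ATP. Each entry reports viability compared with vehicle-treated cells.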
`CCN1C(=O)CNc2ncc(-c3ccc(-c4nc[nH]n4)nc3C)nc21` yielded a cell viability of 0.8.

As to `O=C(O)CCN1C(=O)/C(=C/c2ccc(-c3ccc([N+](=O)[O-])cc3)o2)SC1=S`, the cell viability came out at 0.95.

Take `Cc1cc(N2C[C@@H](C)N[C@@H](C)C2)ncc1-c1ccc(-c2nc3c(ccn3C)c(=O)[nH]2)cc1`: the cell viability was 0.757. The result for `COC(=O)[C@@H](N)Cc1cnc[nH]1` [Methyl L-histidinate dihydrochloride] reads 0.981; that for `NC(=O)[C@@H]1CC[C@@H]2CN1C(=O)N2OS(=O)(=O)O` [Avibactam sodium], 1.05; that for `CN[C@@H](C)C(=O)N[C@H](C(=O)N1CCC[C@H]1C(=O)Nc1snnc1-c1ccccc1)C1CCCCC1`, 1.16. The result for `CN(C)C/C=C/C(=O)Nc1ccc(C(=O)N2CCC[C@@H](Nc3ncc(Cl)c(-c4c[nH]c5ccccc45)n3)C2)cc1` reads 0.437. The result for `O=C(/C=C/c1ccc2ccc(C(F)(F)F)cc2n1)c1ccncc1` reads 1.06; that for `CN1CCN(c2cccc(Nc3nc4c(-c5ccc(S(C)(=O)=O)cc5)cccn4n3)c2)CC1`, 1.12. `Nc1nccc(Oc2ccc3c(C(=O)Nc4cccc(C(F)(F)F)c4)cccc3c2)n1` yielded a cell viability of 0.954.

`COc1cc2nc(N3CCN(C(=O)C4CCCO4)CC3)nc(N)c2cc1OC` (stereo not drawn) [Terazosin hydrochloride]: the cell viability was 1.12. On to `CCOC(=O)N1CCC(NCCNC(=O)c2ccccc2C)CC1`, for which the cell viability turned out to be 1.08. The result for `CC(=O)OCC(=O)[C@@]1(O)CC[C@H]2[C@@H]3CCC4=CC(=O)CC[C@]4(C)[C@H]3C(=O)C[C@@]21C` [Cortisone acetate] reads 1.26. The molecule `COc1ccc(CC(=O)Nc2nc3c(s2)CCc2ccccc2-3)cc1OC` came in with a cell viability of 1.2. With `CC(C)(C)c1cc(C(=O)C(C#N)=NNc2cccc(Cl)c2)no1` the figure was 1.05; with `C#C[C@]1(O)CC[C@H]2[C@@H]3[C@H](C)CC4=C(CCC(=O)C4)[C@H]3CC[C@@]21C` [Tibolone], 1.17.

Molecule `CCc1nc(C(N)=O)c(Nc2ccc(N3CCC(N4CCN(C)CC4)CC3)c(OC)c2)nc1NC1CCOCC1` [Gilteritinib] registered a cell viability of 0.801. Take `CN(C)CCCOc1nn(Cc2ccccc2)c2ccccc12` [Benzydamine hydrochloride]: the cell viability turned out to be 1. On to `O=C1c2c(O)cc(O)cc2OC(c2ccc(O)c(O)c2)C1O` (stereo not drawn) [Taxifolin], for which the cell viability stood at 0.925. With `Nc1ccn(C[C@@H](CO)OCP(=O)(O)O)c(=O)n1` [Cidofovir] the figure was 0.986; with `FC(F)(F)c1ccc(/C=C/c2nc(COc3ccc(CCCCn4ccnn4)cc3)co2)cc1` [Mubritinib], 0.947; with `NC(=O)c1ncn([C@@H]2O[C@H](CO)[C@@H](O)[C@H]2O)c1O` [Mizoribine], 1.06. The result for `Cc1cn([C@@H]2C[C@@H](O)[C@H](CO)O2)c(=O)[nH]c1=O` [Telbivudine] reads 0.881; that for `Cc1cc(NC(=O)c2cccc(NC(=O)/C=C/CN(C)C)c2)ccc1Nc1nccc(-c2cccnc2)n1`, 0.841. Take `CCOc1cc2ncc(C#N)c(Nc3ccc(OCc4ccccn4)c(Cl)c3)c2cc1NC(=O)/C=C/CN(C)C` [Neratinib]: the cell viability was 0.587. With `O=C(N/N=C/c1ccc([N+](=O)[O-])o1)c1ccc(O)cc1` [Nifuroxazide] the figure was 0.929. With `Cn1cc(C2=C(c3ccc(Cl)cc3Cl)C(=O)NC2=O)c2ccccc21` the figure was 1.04.

For `O=C1Nc2cc(Br)ccc2/C1=C1/Nc2ccccc2/C1=N\O`, the cell viability is 0.724. With `CN(N=O)C(=O)N[C@@H](C=O)[C@@H](O)[C@H](O)[C@H](O)CO` [Streptozocin] the figure was 0.791. With `O=C(NC(NC(=S)Nc1ccc(F)c([N+](=O)[O-])c1)C(Cl)(Cl)Cl)C(c1ccccc1)c1ccccc1` (stereo not drawn) the figure was 0.861; with `CCc1cc(C(N)=S)ccn1` [Ethinamide], 0.966. With `CC(=O)Nc1ccc(S(=O)(=O)Nc2ccc([N+](=O)[O-])cc2)cc1` [Sulfanitran] the figure was 1.03; with `CCc1c2c(nc3ccc(OC(=O)N4CCC(N5CCCCC5)CC4)cc13)-c1cc3c(c(=O)n1C2)COC(=O)[C@]3(O)CC` [Irinotecan hydrochloride trihydrate], 1.05. In the case of `CCc1c2c(nc3ccc(OC(=O)N4CCC(N5CCCCC5)CC4)cc13)-c1cc3c(c(=O)n1C2)COC(=O)[C@]3(O)CC` [Irinotecan], the cell viability was determined as 1.07. Regarding `C[C@H]1[C@H](NC(=O)/C(=N\OC(C)(C)C(=O)O)c2csc(N)n2)C(=O)N1S(=O)(=O)O` [Aztreonam], the cell viability is 1.27.

Take `C[C@H](O)[C@H]1CC[C@H]2[C@@H]3CC[C@@H]4C[C@H](O)CC[C@]4(C)[C@H]3CC[C@]12C` [5Beta-Pregnane-3Alpha,20alpha-Diol]: the cell viability was 0.824.

In the case of `OC[C@H]1O[C@@H](OCCc2ccc(O)cc2)[C@H](O)[C@@H](O)[C@@H]1O` [Salidroside], the cell viability turned out to be 0.915. `CNCCC=C1c2ccccc2CCc2ccccc21` [Nortriptyline hydrochloride] returned a cell viability of 1.04. In the case of `CCC[C@H](NC(=O)/C(C#N)=C/c1cccc(Br)n1)c1ccccc1` [Degrasyn], the cell viability was 0.935. Molecule `CCOC(=O)NCCCC(=O)NCCc1ccccc1` [SantacruzaMate A] yielded a cell viability of 0.96. The result for `COC(=O)c1ccc(N2CCN(C)CC2)c(NC(=O)c2cccc(OC)c2)c1` reads 0.839. With `CC[C@H](C)[C@@H]([C@@H](CC(=O)N1CCC[C@H]1[C@H](OC)[C@@H](C)C(=O)N[C@@H](Cc1ccccc1)C(=O)O)OC)N(C)C(=O)[C@@H](NC(=O)[C@@H](NC)C(C)C)C(C)C` [MonoMethyl auristatin F] the figure was 0.645. With `C=C1/C(=C\C=C2/CCC[C@]3(C)[C@@H]([C@H](C)CCCC(C)(C)O)CC[C@@H]23)C[C@@H](O)C[C@@H]1O` [Calcitriol] the figure was 0.807; with `Cc1ccc(/C(=C\CN2CCCC2)c2ccccn2)cc1` [Triprolidine hydrochloride], 1.18; with `c1ccc2c(Oc3nc(Nc4ccc(N5CCOCC5)cc4)c4ncn(C5CCCCC5)c4n3)cccc2c1` [Purmorphamine], 0.889. On to `N#Cc1ccc(Cn2cncc2CN2CCN(c3cccc(Cl)c3)C(=O)C2)cc1`, for which the cell viability is 0.882. With `C[C@]12C=CC(=O)C=C1CC[C@@H]1[C@@H]2C(=O)C[C@@]2(C)[C@H]1CC[C@]2(O)C(=O)CO` [Prednisone] the figure was 0.976. The result for `COc1cc2nccc(Oc3ccc(NC(=O)Nc4ccc(F)cc4F)c(F)c3)c2cc1OC` reads 0.966. Turning to `CC1(C)[C@@H](O[C@H]2O[C@H](C(=O)O)[C@@H](O)[C@H](O)[C@H]2O[C@@H]2O[C@H](C(=O)O)[C@@H](O)[C@H](O)[C@H]2O)CC[C@]2(C)[C@H]3C(=O)C=C4[C@@H]5C[C@@](C)(C(=O)O)CC[C@]5(C)CC[C@@]4(C)[C@]3(C)CC[C@@H]12` [Diammonium Glycyrrhizinate], the cell viability is 1.15. In turn, `CC1(C)[C@@H](O[C@H]2O[C@H](C(=O)O)[C@@H](O)[C@H](O)[C@H]2O[C@@H]2O[C@H](C(=O)O)[C@@H](O)[C@H](O)[C@H]2O)CC[C@]2(C)[C@H]3C(=O)C=C4[C@@H]5C[C@@](C)(C(=O)O)CC[C@]5(C)CC[C@@]4(C)[C@]3(C)CC[C@@H]12` [Glycyrrhizin] yielded a cell viability of 1.21. With `CC(C)CN(C[C@@H](O)[C@H](Cc1ccccc1)NC(=O)O[C@H]1CCOC1)S(=O)(=O)c1ccc(N)cc1` [Amprenavir] the figure was 1. With `CCC1=C[C@@H]2CN(C1)Cc1c([nH]c3ccccc13)[C@@](C(=O)OC)(c1cc3c(cc1OC)N(C)[C@H]1[C@@](O)(C(=O)OC)[C@H](OC(C)=O)[C@]4(CC)C=CCN5CC[C@]31[C@@H]54)C2` [Vinorelbine Tartrate] the figure was 0.864; with `OCc1ccccc1` [Benzyl alcohol], 0.987.

Consider `O=c1c(O)c(-c2ccc(O)cc2)oc2c(O)c(O)cc(O)c12` [Herbacetin], for which the cell viability was found to be 1.02. With `CC(C)=CCC[C@](C)(O[C@@H]1O[C@H](CO)[C@@H](O)[C@H](O)[C@H]1O)[C@H]1CC[C@]2(C)[C@@H]1[C@H](O)C[C@@H]1[C@@]3(C)CC[C@H](O)C(C)(C)[C@@H]3[C@@H](O[C@@H]3O[C@H](CO)[C@@H](O)[C@H](O)[C@H]3O[C@@H]3OC[C@@H](O)[C@H](O)[C@H]3O)C[C@]12C` [Notoginsenoside R1] the figure was 0.966. Turning to `CNC(=C[N+](=O)[O-])NCCSCc1csc(CN(C)C)n1` [Nizatidine], the cell viability stood at 0.816. Molecule `NC(=O)c1nc(-c2c(F)cccc2Cl)oc1Nc1ccc(C(=O)N2CCOCC2)cc1` returned a cell viability of 0.929. With `CS(=O)(=O)Nc1ccc([N+](=O)[O-])cc1Oc1ccccc1` [Nimesulide] the figure was 0.949; with `CCn1cc(C(=O)O)c(=O)c2cc(F)c(N3CCNC(C)C3)c(F)c21` (stereo not drawn) [Lomefloxacin hydrochloride], 0.737; with `CCn1cc(C(=O)O)c(=O)c2cc(F)c(N3CCNC(C)C3)c(F)c21` (stereo not drawn) [Lomefloxacin], 0.995. `Cc1cc(Nc2cc(Cl)nc(Oc3ccc([N+](=O)[O-])cc3)n2)n[nH]1` [Autophinib] gave a cell viability of 1.28.

The molecule `C=CC(=O)Nc1cccc(Nc2nc(Nc3ccc(NC4CN(CCF)C4)cc3OC)ncc2C(F)(F)F)c1` yielded a cell viability of 0.909. The molecule `CCn1cc(C(=O)O)c(=O)c2cc(F)c(N3CCN(C)CC3)cc21` [Pefloxacin Mesylate Dihydrate] registered a cell viability of 1. With `N#CN=C(NCCCCCCOc1ccc(Cl)cc1)Nc1ccncc1` the figure was 0.165. As to `NC(=O)c1[nH]cnc1N` [4-Amino-5-imidazolecarboxamide], the cell viability came out at 0.889. With `O=C(O)c1ccc(CN2C[C@@H]3C[C@H]2CN3Cc2ccc(Oc3ccc(-c4ncco4)cc3)cc2)cc1` [Acebilustat] the figure was 1.04; with `CCOC(=O)c1ccc(N2NC(=O)C(=Cc3ccc([N+](=O)[O-])o3)C2=O)cc1`, 1.04. The result for `CS(=O)(=O)Nc1cc(-c2ccc3ncnc(Nc4ccc(F)c(Cl)c4)c3c2)cnc1Cl` reads 0.997.
